SMILES strings stand for the structures. The whole screen tested about 39,000 compounds, of which about 220 (0.56%) showed activity. Some of the results follow.
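Further: static incubation at 37 °C against the wild-type strain, values averaged over two biological replicates.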

For the test, the system named is Escherichia coli K-12 BW25113. In words: relative growth (OD600 normalised to plate interquartile mean) (fraction); higher = less growth inhibition, active = 0.2 or less. Particulars: 50 µM; LB; incubation time: overnight (16-24 h).
As to `CN(C)CC(=O)N[C@@H]1CC[C@H](CCn2cc(CN(C)C)nn2)O[C@@H]1CO`, the relative growth was inactive: 1.01.
In the case of `C[C@@H]1CN([C@H](C)CO)C(=O)c2cc(NC(=O)NC3CCCCC3)ccc2O[C@H]1CN(C)C(=O)Nc1cccc2ccccc12`, the relative growth was inactive: 0.988.
Consider `COc1ccc(NC(=O)N(C)C[C@@H]2OCCCC[C@H](C)Oc3ccc(NC(=O)Nc4ccc5c(c4)OCO5)cc3C(=O)N([C@@H](C)CO)C[C@@H]2C)cc1`, for which the relative growth was inactive: 1.01.
To `C[C@H]1CN([C@@H](C)CO)C(=O)Cc2cc(NC(=O)Cc3cn(C)c4ccccc34)ccc2O[C@H]1CN(C)Cc1ccc(C(F)(F)F)cc1` belongs inactive: 1.05; to `CS(=O)(=O)Nc1ccc2c(c1)C(=O)NC2=O`, inactive: 1.01; to `COc1ccccc1C#Cc1cnc2c(c1)C(=O)N([C@H](C)CO)C[C@H](C)[C@@H](CN(C)C(=O)CC1CC1)O2`, inactive: 0.968.
To `C[C@H](CO)N1C[C@H](C)[C@H](CN(C)S(=O)(=O)c2cn(C)cn2)Oc2ccc(NC(=O)C3CC3)cc2C1=O` belongs inactive: 0.99; to `C[C@H](CO)N1C[C@H](C)[C@H](CN(C)C(=O)Nc2ccc(F)cc2)OCCCC[C@H](C)Oc2ccc(NC(=O)C3CCCC3)cc2C1=O`, inactive: 0.992.
The same measure for `C[C@@H]1CN([C@H](C)CO)C(=O)Cc2cc(NC(=O)Cc3cn(C)c4ccccc34)ccc2O[C@@H]1CN(C)C(=O)Nc1ccc(C(F)(F)F)cc1`: inactive: 1; for `Cc1ccc2c(c1)/C(=C/c1ccncc1)c1cc3ccccc3nc1-2`: inactive: 1.03.
For `C[C@@H]1CN([C@@H](C)CO)C(=O)c2cc(NC(=O)c3ccccc3)ccc2O[C@@H](C)CCCCO[C@H]1CN(C)CC1CCCCC1`, the relative growth is inactive: 0.988.
The same measure for `Cn1nnc2c(N3CCC(O)CC3)ncnc21`: inactive: 1.01; for `O=C(CCCCCCC(=O)Nc1ccccc1)NO`: inactive: 1.18; for `O=C(C[C@@H]1CC[C@H]2[C@@H](COC[C@@H](O)CN2S(=O)(=O)c2ccc(Cl)cc2)O1)NCC1CCCCC1`: inactive: 0.804.
The same measure for `C[C@@H]1CCCCO[C@H](CN(C)C(=O)C2CCCCC2)[C@H](C)CN([C@H](C)CO)C(=O)c2cc(NC(=O)NC3CCCCC3)ccc2O1`: inactive: 1.02.
The same measure for `Cc1noc(C)c1NC(=O)N(C)C[C@H]1Oc2c(NS(=O)(=O)c3cn(C)cn3)cccc2C(=O)N([C@@H](C)CO)C[C@H]1C`: inactive: 0.962; for `CCCC[C@@H](C#N)c1ccccn1`: inactive: 0.971; for `C[C@@H]1CCCCO[C@@H](CN(C)S(=O)(=O)c2ccc(Cl)cc2)[C@@H](C)CN([C@H](C)CO)C(=O)c2cc(NC(=O)NC3CCCCC3)ccc2O1`: inactive: 0.986.
With `O=C(O)[C@H](O)[C@H](O)[C@H](O)[C@H](O)CO`, the relative growth is inactive: 1.01.
With `Cc1ccc(S(=O)(=O)N(C)C[C@H]2OCCCC[C@H](C)Oc3ccc(NC(=O)Cc4ccccc4)cc3C(=O)N([C@H](C)CO)C[C@@H]2C)cc1`, the relative growth is inactive: 1.03.
In the case of `O=c1ccn([C@@H]2O[C@H](COP(=O)(O)OP(=O)(O)OP(=O)(O)OP(=O)(O)OC[C@H]3O[C@@H](n4ccc(=O)[nH]c4=O)[C@H](O)[C@@H]3O)[C@@H](O)[C@H]2O)c(=O)[nH]1`, the relative growth is inactive: 0.988.
Regarding `C[C@@H]1CN([C@H](C)CO)C(=O)c2cc(C#CCN(C)C)cnc2O[C@H]1CN(C)S(=O)(=O)c1cn(C)cn1`, the relative growth was inactive: 0.983.
For `C[C@H](CO)N1C[C@H](C)[C@H](CN(C)Cc2cccc(C(F)(F)F)c2)Oc2ncc(-c3cccc(F)c3)cc2C1=O`, the relative growth was inactive: 1.01.
As to `COc1cc2c(NC3CCN(C)CC3)nc(N3CCCN(C)CC3)nc2cc1OCCOCCN(C)C`, the relative growth is inactive: 0.995.
The same measure for `COc1ccccc1N1CCN(CCCNc2cc(=O)n(C)c(=O)n2C)CC1.Cl`: inactive: 0.932; for `CC[C@@H](N)C12CC3CC(CC(C3)C1)C2`: inactive: 0.976; for `C[C@@H]1CCCCO[C@@H](CN(C)S(=O)(=O)c2ccc(F)cc2)[C@H](C)CN([C@@H](C)CO)C(=O)c2cc(NC(=O)Cc3ccccc3)ccc2O1`: inactive: 1.04.
As for `NS(=O)(=O)c1ccc2c(c1)COC2`, the relative growth is inactive: 1.01.
The same measure for `C[C@H]1CN([C@@H](C)CO)C(=O)Cc2cc(NC(=O)Cc3ccccc3)ccc2O[C@H]1CN(C)Cc1ccc(-c2ccccc2)cc1`: inactive: 1.01.
Take `COCC(=O)N1[C@H](C(=O)N2CCN(C)CC2)[C@@H](CO)[C@@H]2Cn3c(ccc(C4=CCCC4)c3=O)[C@@H]21`: the relative growth was inactive: 0.976.
To `O=C1CN(c2ccccc2)C(=O)N1` belongs inactive: 1.04; to `CC(C)NC(=O)N(C)C[C@H]1Oc2ccc(NS(=O)(=O)c3ccccc3)cc2CC(=O)N([C@H](C)CO)C[C@H]1C`, inactive: 0.999; to `Nc1ncnc2c1ncn2CCO`, inactive: 0.864.
To `CC(C)NC(=O)Nc1ccc2c(c1)CC(=O)N([C@H](C)CO)C[C@@H](C)[C@@H](CN(C)Cc1ccc3c(c1)OCO3)O2` belongs inactive: 0.986; to `C[C@@H]1CN([C@@H](C)CO)C(=O)Cc2cc(NC(=O)Cn3cnnn3)ccc2O[C@H]1CN(C)Cc1ccc(Oc2ccccc2)cc1`, inactive: 0.959.
As to `O=c1cc(-c2ccccc2)oc2cc(O)cc(O)c12`, the relative growth was inactive: 1.1.
Turning to `C[C@@H]1CN([C@@H](C)CO)C(=O)c2cccc(NC(=O)C3CCOCC3)c2O[C@H]1CN(C)Cc1ccc(C(=O)O)cc1`, the relative growth is inactive: 0.986.
The same measure for `C[C@@H]1CN([C@@H](C)CO)C(=O)c2cc(NC(=O)c3ccncc3)ccc2O[C@@H](C)CCCCO[C@@H]1CN(C)C(=O)NC1CCCCC1`: inactive: 0.965.
To `C[C@@H]1CN([C@@H](C)CO)C(=O)Cc2cc(NS(=O)(=O)c3ccccc3)ccc2O[C@@H]1CN(C)Cc1ccc(-c2ccccc2)cc1` belongs inactive: 1; to `COc1cccc(CNC(=O)C[C@@H]2C=C[C@H](NC(=O)C3CCOCC3)[C@@H](CO)O2)c1`, inactive: 0.979; to `C[C@@H]1CN([C@@H](C)CO)C(=O)c2cc(NS(=O)(=O)c3ccccc3)ccc2O[C@@H](C)CCCCO[C@H]1CN(C)C(=O)C1CCCCC1`, inactive: 0.976.
`COc1cc(NC(=O)Cn2cnc3c2c(=O)n(C)c(=O)n3C)cc(OC)c1OC`: the relative growth is inactive: 1.02.
To `C[C@H]1CN([C@@H](C)CO)C(=O)c2cc(NS(=O)(=O)c3cn(C)cn3)ccc2O[C@@H]1CN(C)Cc1ccc2c(c1)OCO2` belongs inactive: 1.01.
To `C[C@H](CO)N1C[C@H](C)[C@H](CN(C)C(=O)Nc2cccc3ccccc23)Oc2c(NC(=O)NC3CCCCC3)cccc2C1=O` belongs inactive: 1.01.
To `CC(O)C(=O)O.CCOc1ccc2nc3cc(N)ccc3c(N)c2c1` belongs inactive: 0.285; to `CC(=O)N[C@H](CCCNC(=N)N)C(=O)N[C@H](CCCNC(=N)N)C(=O)N[C@H](CCCNC(=N)N)C(=O)N[C@H](CCCNC(=N)N)C(=O)N[C@H](CCCNC(=N)N)C(=O)N[C@H](CCCNC(=N)N)C(=O)N[C@H](CCCNC(=N)N)C(=O)N[C@H](CCCNC(=N)N)C(=O)N[C@H](CCCNC(=N)N)C(N)=O`, inactive: 0.511; to `O=C(N[C@H]1CC[C@@H](CCNS(=O)(=O)c2ccc(F)cc2)O[C@@H]1CO)C1CC1`, inactive: 0.975.
With `CO[C@@H]1CN(C)C(=O)c2cc(NC(=O)Nc3ccc4c(c3)OCO4)ccc2OC[C@@H](C)N(C(C)=O)C[C@H]1C`, the relative growth was inactive: 0.97.
The same measure for `COC(=O)c1c(-c2c(Cl)cccc2Cl)noc1-c1cnn(-c2cccc(Cl)c2)c1C(F)(F)F`: inactive: 1.01; for `COc1ccc(S(=O)(=O)N2C[C@@H](O)COC[C@@H]3O[C@@H](CC(=O)N[C@@H]4CCN(Cc5ccccc5)C4)CC[C@H]32)cc1`: inactive: 0.999.
The same measure for `CC1(C)[C@H]2CC[C@@]1(CS(N)(=O)=O)C(=O)C2`: inactive: 0.999.
To `Cc1cc(C(=O)Nc2cccc3c2O[C@@H](CN(C)S(=O)(=O)c2ccccc2)[C@@H](C)CN([C@@H](C)CO)C3=O)n(C)n1` belongs inactive: 1.01; to `C[C@@H]1CCCCO[C@@H](CN(C)Cc2ccc(C(=O)O)cc2)[C@H](C)CN([C@H](C)CO)C(=O)c2cc(NS(=O)(=O)c3ccc(Cl)cc3)ccc2O1`, inactive: 1.02.
Consider `O=C(C[C@H]1C[C@@H]2c3cc(NC(=O)c4ccc5c(c4)OCO5)ccc3O[C@@H]2[C@@H](CO)O1)NCc1ccccn1`, for which the relative growth was inactive: 0.953.
The same measure for `C[C@@H]1CN([C@H](C)CO)C(=O)Cc2cc(NC(=O)Nc3ccccc3)ccc2O[C@H]1CN(C)Cc1ccc(C(F)(F)F)cc1`: inactive: 1.08.
The same measure for `C[C@@H]1CN([C@H](C)CO)C(=O)Cc2cc(NS(C)(=O)=O)ccc2O[C@@H]1CN(C)Cc1ccc(C(=O)Nc2ccccc2N)cc1`: inactive: 1.02; for `C[C@@H]1CN([C@@H](C)CO)S(=O)(=O)c2ccc(C#Cc3ccccc3)cc2O[C@H]1CN(C)C(=O)CN(C)C`: inactive: 1; for `O=C(C[C@@H]1CC[C@H]2[C@@H](COC[C@H](O)CN2C(=O)Nc2cccc(F)c2)O1)NCc1ccccc1Cl`: inactive: 0.948.
Consider `COc1ccccc1S(=O)(=O)N[C@H]1CC[C@@H](CCNC(=O)C2CC2)O[C@@H]1CO`, for which the relative growth is inactive: 0.993.
Regarding `C[C@@H]1CCCCO[C@@H](CN(C)C(=O)Nc2ccc(C(F)(F)F)cc2)[C@@H](C)CN([C@H](C)CO)C(=O)c2cc(NC(=O)CCC(F)(F)F)ccc2O1`, the relative growth was inactive: 1.04.
As for `CN1C(=O)c2cc(NC(=O)c3cccs3)ccc2OC[C@H]2O[C@H](CC(=O)NCCN3CCCCC3)CC[C@@H]21`, the relative growth was inactive: 0.989.
`CN1CCC2(CC1)CN(C(=O)CNC(N)=O)CCCN2C`: the relative growth was inactive: 0.972.
The same measure for `C[C@H](CO)N1C[C@H](C)[C@@H](CN(C)C(=O)Nc2cccc(Cl)c2Cl)OCc2ccccc2-c2c(n(C)c3ccccc23)C1=O`: inactive: 1.04.

The record behind these values is the supplement of paper PMC9446081.
